B1: chr12:79451877:79451978:+|3pUTR|ENSG00000067715|msi1|FALSE|unique (ssRNA)
RNA: GGGAGUUCUACAGUCCGACGAUCCCUUCAUUUUUGAUGAGGUGAUUUAAAUUUUGUUUCACUUUGUGUAGUGAAUUCCACAGUAGUUUUCUGAUUGUUGUUAAAAAUGACUUAACAUAUUACACAGAUAUUCAAUAAAAAUGUCAACAGAGGAUUGAGCAUCA
B2: chr15:50499333:50499363:+|3pUTR|ENSG00000138592|msi1_unk|FALSE|overlapping (ssRNA)
RNA: GGGAGUUCUACAGUCCGACGAUCCAGGUACCAUUUAUUUCAAAACAACUUUUUUAGUCUGCUCCAAAGUUAAAAUAAUUAACUAGCUAAGCAUUAUUAUUCGACUGGUCUAAAAACUAUUGUUAUCUUUUUUUUUUCCUUUUCCAACAGAGGAUUGAGCAUCA
B3: chr12:6238009:6238110:+|3pUTR|ENSG00000010278|msi1_unk|FALSE|overlapping (ssRNA)
RNA: GGGAGUUCUACAGUCCGACGAUCAUAAAAGCUGAAGUUACUUUAUGUUUGUCUUUUAAUGCUUCAUUCAAUAUUGACAUUUGUAGUUGAGCGGGGGGUUUGGUUUGCUUUGGUUUAUAUUUUUUCAGUUGUUUGUUUUUGCUUCAACAGAGGAUUGAGCAUCA
B4: chr15:49644301:49644402:+|3pUTR|ENSG00000104047|msi1|FALSE|unique (ssRNA)
RNA: GGGAGUUCUACAGUCCGACGAUCAAUAAUUGAAGCCUACCUGCUAGUGGCCAUCUCUGCUGCCAGGUGAAAAGAGCCUGACUUAGAAUGAAGUCAGCGAAGGAAAGCAGAGUGGAGAGAAAAAGAGAGACUGAGUCCUGAUGACAACAGAGGAUUGAGCAUCA
B5: chr1:68475836:68475940:-|3pUTR|ENSG00000024526|unk|FALSE|unique (ssRNA)
RNA: GGGAGUUCUACAGUCCGACGAUCAUGCCCAGGGCCUAACUUACACUAAUUAAAUCUGAAUUUUGGGGAUGUUGUAUAGGGAUUAGUAUUUUUUUUAAUCUAGGUGAUUCCAAUAUUCAGCCAACUGUGAGAAUCAAUGGCCUACAACAGAGGAUUGAGCAUCA
B6: ENSG00000196510:stop:overlap|stop_codon|ENSG00000196510|stop_codon|NA|stop_codon (ssRNA)
RNA: GGGAGUUCUACAGUCCGACGAUCUCCUUGUAGCUGUCAAUGAGUAUCAGGAGGCAAUGGACCAGUAUAGUAUAGCACUAAGGUAGGCACUAGCCUCCCUUGGGGGAAGGCCACUGAGGAGGGUAGAGGAGGCAGUGAGCUGUGCAACAGAGGAUUGAGCAUCA
B7: chr12:49763637:49763739:+|3pUTR|ENSG00000139644|msi1_unk|FALSE|overlapping (ssRNA)
RNA: GGGAGUUCUACAGUCCGACGAUCAUGUGUAUCAAGGUACAGCAUCGUAGGGUUCCCCUAAACUUGCCCUGUUUUUGUUUUUUUAGUUUGUUAUCCCCUUACUGAGCGGCCUCUACUAGGUGGCUGUGAUUAAAUGUCCCAAGCCAACAGAGGAUUGAGCAUCA
B8: chr21:39174768:39175664:-|three_prime_utr|ENSG00000183527|control|control|control (ssRNA)
RNA: GGGAGUUCUACAGUCCGACGAUCUUGAUGACAACAAAUGAGAUUCAGAGUAACAUUUAUACAUGAUCUUAAACAUUGUUUUGUAGUGUAUAUUACUUGUCCAUUCCUUUAAGGGGAGCAGCCUGCACUCUUUUGUAGAUUACUCAACAGAGGAUUGAGCAUCA
B9: chr7:114979563:114979664:+|CDS|ENSG00000135272|unk|FALSE|unique (ssRNA)
RNA: GGGAGUUCUACAGUCCGACGAUCCCAACCUCAGCGCUUGCCUCAGCUUCAGACUUCAGCCCAGGUGCCAAGUGGUGAGGAAAUAGGCAAGAUAAAGAACGGCCACACAGGUCUGAGCAAUGGAAAUGGAAUUCACCACGGGGCCAACAGAGGAUUGAGCAUCA
B10: chr11:62888716:62888817:+|3pUTR|ENSG00000168003|unk|total|mutant (ssRNA)
RNA: GGGAGUUCUACAGUCCGACGAUCUUUUCUCUUUUUUAAAAACAAACAAACAAACUGUUGCAGAUUAUGAGUGAACCCCCAAACCGGGUGUUUUCUGCCUUCAAAUAAAAGUCACCCCUGCAUGGUGAAGUCUUCCCUCUGCUUCAACAGAGGAUUGAGCAUCA
B11: chr5:14398947:14399058:+|CDS|ENSG00000038382|unk|FALSE|unique (ssRNA)
RNA: GGGAGUUCUACAGUCCGACGAUCCCCAAAAACCUUAAUUCGAAAGGGUCGAGAACGGCAUCUCUUCCUUUUUGAAAUGUCCUUAGUAUUUAGUAAAGAAGUGAAAGAUUCCAGUGGGAGAAGCAAGUACCUUUAUAAAAGCAACAACAGAGGAUUGAGCAUCA
B12: chr22:49888080:49888186:+|3pUTR|ENSG00000100426|unk|FALSE|unique (ssRNA)
RNA: GGGAGUUCUACAGUCCGACGAUCUGGCUUAUUAACAGGGAAGAAGCUUGUUAUAUUCCAGUUGUAAGAAUAGCCUUAGUGUUUAGAUUUUUUUAUGAUAGGGAAGAUGCGGCCAUCACUGGGAUAUUUUCAAAUCCCAAGGACCAACAGAGGAUUGAGCAUCA
B13: chr1:228098150:228098251:+|3pUTR|ENSG00000143761|msi1_unk|total|mutant (ssRNA)
RNA: GGGAGUUCUACAGUCCGACGAUCGCACCGUGCUGUAAAUGUGGCAGACGCAGCCUGCGGCCAGGCUUUUUAUUUAAUGUAAACCGUUUUUGUUUCCAAUGAGGCAGUUUCUGGUACUCCUAUGCAAUAUUACUCAGCUUUUUUCAACAGAGGAUUGAGCAUCA
B14: ENSG00000070961:be:win_6301|3pUTR|ENSG00000070961|bound_else_gene|NA|bound_elsewhere_windowed (ssRNA)
RNA: GGGAGUUCUACAGUCCGACGAUCUGAGUUACUCCUUGUCAUCUUACAAAUAUGUGAUAUGGUAAUUUUCAUAACAGAUGUCAGUUUUGAACCAAGAAUUGGUGAUUUGUUUAUAAGAAAAAAACUGGCUUCAUUUCUGUGAAACAACAGAGGAUUGAGCAUCA
B15: chr14:60975662:60975785:-|CDS|ENSG00000126814|unk|FALSE|unique (ssRNA)
RNA: GGGAGUUCUACAGUCCGACGAUCGAAAGAAAACCCUCUGUGCACGUUGUCAUGAACUUGCCAGCAAAAGCUAUAGAGUUUCUUAGUGCUUUCAAGUGGCUUUUAGAUGGGCAGCCAUGCAGCAGUGAGUUCCUUCCCAUAGUGCAACAGAGGAUUGAGCAUCA
B16: chr8:94832020:94832135:+|CDS|ENSG00000164941|unk|total|mutant (ssRNA)
RNA: GGGAGUUCUACAGUCCGACGAUCGGUACCCGAAGCAGCCCUAAAAUUAAACAAGGAUCUUUAUGUCCAUACGAUGAGAACUCCCGAUUUAUUGGCCAUGGAACCAGGCAUGGUAAAUGGAGAAACUGAGAGUUCUACUGCUGGCAACAGAGGAUUGAGCAUCA
B17: chr4:100395340:100398373:-|three_prime_utr|ENSG00000164035|control|control|control (ssRNA)
RNA: GGGAGUUCUACAGUCCGACGAUCGGGGCUCUCCUGUUCUCUCACAUUUAAAAAUUCCAUUACUCCAUUUACAGGAGCGUUCCUAGGAAAAGGAAUUUUAGGAGGAGAAUUUGUGAGCAGUGAAUCUGACAGCCCAGGAGGUGGCAACAGAGGAUUGAGCAUCA
B18: chr12:103777333:103777434:-|3pUTR|ENSG00000111696|msi1|total|mutant (ssRNA)
RNA: GGGAGUUCUACAGUCCGACGAUCUCCUGAACAUUUACGGGCUAUGCAUUGGGAACUGCAGGGGCACAGUGAUGGGCAAAGAUCCGCUGCUUCCAGAAGGCUGAUUUCGUGGGCUCCACAAUGGUAAAACGCUGCUGUGAGUGGCAACAGAGGAUUGAGCAUCA
B19: chr1:65389253:65389354:+|CDS|ENSG00000116675|unk|total|mutant (ssRNA)
RNA: GGGAGUUCUACAGUCCGACGAUCGUCCGAUGCAUGUGAUGUACCAGAAAAAUAUCCUCAGCUAUUUCAGGUGACACUGGAUGCCGAACUACAGCCCCAUGACAAAGUAACCGACUUAACUCCACCAUGGGAACAUUACUGCACCAACAGAGGAUUGAGCAUCA
B20: chr2:39051162:39051270:-|CDS|ENSG00000115904|unk|FALSE|unique (ssRNA)
RNA: GGGAGUUCUACAGUCCGACGAUCAAAUAUAUUUAGUCGCAUAGUAGAUAUACAUGAACUUAGUGUAAAGUUACUGGGCCAUAUAGAAGAUACAGUAGAAAUGACAGAUGAAGGCAGUCCCCAUCCACUAGUAGGAAGCUGCUUCAACAGAGGAUUGAGCAUCA
B21: chr17:29166540:29166641:-|CDS|ENSG00000196535|unk|total|mutant (ssRNA)
RNA: GGGAGUUCUACAGUCCGACGAUCCUGGACUCGGGCCACCUAAGUACAGCCAGCUCCAGCGAUGACCUCAAGGGUGAGGAGGGCCGCUUCCGUGGCUCGGUGCUGCAGCGGGCAGCCAAGUUCGGCUCACUGGCCAAGCAGAACCAACAGAGGAUUGAGCAUCA
B22: chr2:181535040:181538244:-|three_prime_utr|ENSG00000188452|control|control|control (ssRNA)
RNA: GGGAGUUCUACAGUCCGACGAUCAGCAUGGAAGAAAUGAUUCCAAAGUAACAUGUAAUUGUUUCUAAAAGAAAUGUACAAACUAGAAUUUUAAUAUAAAGAAAUGUGGCCAUGCUUUAAACCUGUGGUCCCCACCCUUUUUGGCAACAGAGGAUUGAGCAUCA

The list shows a part of the results.

The target in this assay is T1, UNK ZnF1-6 (called full-length) (human, UniProt Q9C0B0 30-357).
T1 sequence: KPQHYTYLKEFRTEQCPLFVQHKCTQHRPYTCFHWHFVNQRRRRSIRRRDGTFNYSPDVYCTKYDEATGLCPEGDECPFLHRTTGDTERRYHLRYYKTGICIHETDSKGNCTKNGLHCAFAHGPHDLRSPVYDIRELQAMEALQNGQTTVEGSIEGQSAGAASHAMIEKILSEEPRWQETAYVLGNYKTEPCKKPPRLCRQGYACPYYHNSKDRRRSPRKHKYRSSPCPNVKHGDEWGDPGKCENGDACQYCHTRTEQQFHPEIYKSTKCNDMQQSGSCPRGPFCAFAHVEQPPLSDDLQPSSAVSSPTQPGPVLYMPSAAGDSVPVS
In words: nsRBNS (natural sequence RNA bind-n-seq); RBNS binding buffer (assumed for nsRBNS): 25 mM Tris pH 7.5, 150 mM KCl, 3 mM MgCl2, 0.01% Triton X-100, 500 ug/ml BSA, 20 U/ml SUPERase-In, 4 C; UNK is unkempt and MSI1 is Musashi-1; names of the RNAs are library labels; protein concentration not given here; high values mean tight binding.
In the case of B1, the binding signal turned out to be 0.827 enrichment R. The figure for B2 is 9.13 enrichment R; for B3 it is 2.07 enrichment R; for B4 it is 0.621 enrichment R. B5 had a binding signal of 11.6 enrichment R. B6: the binding signal was determined as 0.847 enrichment R.

For B7, the binding signal worked out at 1.99 enrichment R. As for B8, the figure is 0.615 enrichment R. With B9, the binding signal stood at 0.712 enrichment R. B10 showed a binding signal of 0.587 enrichment R.

Molecule B11 had a binding signal of 2.82 enrichment R. The figure for B12 is 11.3 enrichment R; for B13 it is 0.896 enrichment R.

In turn, B14 yielded a binding signal of 0.375 enrichment R. B15 gave a binding signal of 0.713 enrichment R. As to B16, the binding signal was determined as 1.08 enrichment R. B17 returned a binding signal of 0.781 enrichment R. B18 displayed a binding signal of 0.856 enrichment R. Molecule B19 returned a binding signal of 0.674 enrichment R.

B20 registered a binding signal of 3.02 enrichment R. For the molecule B21, the binding signal was 0.832 enrichment R.

Regarding B22, the binding signal came out at 5.14 enrichment R.

(Values after article PMC12136788.)
